Measurements: the supplement of paper PMC8007513
Structures can show the parent of a compound that is named as a salt. ± gives the standard error. About 75 (6%) of roughly 1,300 compounds showed an effect of 50% or more. Some of the results follow.

System: Trichoderma virens ATCC 9645
Test: growth yield (OD600) relative to untreated control; higher = less growth inhibition
Details: compound concentration: 100 uM
Summary of the method: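 For each 96-well plate, 100 μl aliquots were prepared with Trichoderma virens ATCC 9645 spores suspended at 15,000 spores ml^−1 in potato dextrose broth. The spores had been harvested from potato dextrose agar plates after 7 days. Library compounds were present at 100 μM final, some wells also receiving a biocide at 200 ng ml^−1, and plates were grown at 30 °C with OD600 read on a BioTek EL800 at 40 h and 72 h. Reported growth, relative to the control lacking both agents, is the mean of duplicate screens.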

NC(=O)C(c1ccccc1)(c1ccccc1)[C@@H]1CCN(CCc2ccc3c(c2)CCO3)C1 [Darifenacin hydrobromide]
growth yield (40 h): 111 ± 6.3%
growth yield (72 h): 105 ± 6.7%

CCCNCC(O)COc1ccccc1C(=O)CCc1ccccc1 (stereo not drawn) [Propafenone hydrochloride]
growth yield (40 h): 103 ± 4.6%
growth yield (72 h): 106 ± 3.5%

COc1ccccc1OCC(O)CN1CCN(CC(=O)Nc2c(C)cccc2C)CC1 (stereo not drawn) [Ranolazine]
growth yield (40 h): 101.5 ± 0.79%
growth yield (72 h): 99.4 ± 1.3%

COc1cc([C@@H]2c3cc4c(cc3[C@@H](O[C@@H]3O[C@@H]5CO[C@@H](C)O[C@H]5[C@H](O)[C@H]3O)[C@H]3COC(=O)[C@H]23)OCO4)cc(OC)c1O [Etoposide]
growth yield (40 h): 96.1 ± 3%
growth yield (72 h): 97 ± 2.8%

O=S(=O)(O)c1cc(O)ccc1O [Ethamsylate]
growth yield (40 h): 99.9 ± 4.6%
growth yield (72 h): 98.8 ± 3.6%

c1ccc([C@H]2CN3CCSC3=N2)cc1 [Levamisole hydrochloride]
growth yield (40 h): 102.5 ± 0.79%
growth yield (72 h): 102 ± 3.2%

CCC(=O)O[C@]1(C(=O)CCl)[C@@H](C)C[C@H]2[C@@H]3CCC4=CC(=O)C=C[C@]4(C)[C@@]3(F)[C@@H](O)C[C@@]21C [Clobetasol propionate]
growth yield (40 h): 105 ± 4%
growth yield (72 h): 102 ± 2.9%

O=C1OCCN1/N=C/c1ccc([N+](=O)[O-])o1 [Furazolidone]
growth yield (40 h): 84.3 ± 7.2%
growth yield (72 h): 87.7 ± 5.9%

COc1c2occc2c(OC)c2c(=O)cc(C)oc12 [Khellin]
growth yield (40 h): 97.7 ± 1.8%
growth yield (72 h): 95.1 ± 5.1%

Nc1cc(C(Cl)=C(Cl)Cl)c(S(N)(=O)=O)cc1S(N)(=O)=O [Clorsulon]
growth yield (40 h): 104 ± 1.3%
growth yield (72 h): 104 ± 1.7%

CC[C@H](C)C(=O)O[C@H]1CCC=C2C=C[C@H](C)[C@H](CC[C@@H]3C[C@@H](O)CC(=O)O3)[C@H]21 [Mevastatin]
growth yield (40 h): 103 ± 7.6%
growth yield (72 h): 96.2 ± 6.6%

C[C@H](CCC(=O)O)[C@H]1CC[C@H]2[C@@H]3[C@H](O)C[C@@H]4C[C@H](O)CC[C@]4(C)[C@H]3CC[C@]12C [Chenodiol]
growth yield (40 h): 91 ± 4.6%
growth yield (72 h): 94.7 ± 3.5%

CN1CCN(c2c(F)cc3c(=O)c(C(=O)O)cn(CCF)c3c2F)CC1 [Fleroxacin]
growth yield (40 h): 94.5 ± 4%
growth yield (72 h): 92.6 ± 2%

CC(=O)OCC(CCn1cnc2cnc(N)nc21)COC(C)=O [Famciclovir]
growth yield (40 h): 102 ± 3.3%
growth yield (72 h): 99.8 ± 2.5%

NNc1nncc2ccccc12 [Hydralazine hydrochloride]
growth yield (40 h): 100.7 ± 0.32%
growth yield (72 h): 98.4 ± 1.7%

CN1CCN(CCCN2c3ccccc3Sc3ccc(Cl)cc32)CC1 [Prochlorperazine dimaleate]
growth yield (40 h): 31 ± 8.7%
growth yield (72 h): 108 ± 2.4%

Cc1nc(=O)c2cc(CN(C)c3ccc(C(=O)N[C@@H](CCC(=O)O)C(=O)O)s3)ccc2[nH]1 [Raltitrexed]
growth yield (40 h): 99 ± 1.1%
growth yield (72 h): 94.5 ± 1.4%

O=c1oc2ccccc2c(O)c1Cc1c(O)c2ccccc2oc1=O [Dicumarol]
growth yield (40 h): 94 ± 0.95%
growth yield (72 h): 92.4 ± 0.94%

CCN(CC)CCc1nc(-c2ccccc2)no1 [Oxalamine citrate salt]
growth yield (40 h): 93.4 ± 0.32%
growth yield (72 h): 91.243 ± 1e-14%

CNCC(O)c1ccc(OC(=O)C(C)(C)C)c(OC(=O)C(C)(C)C)c1 (stereo not drawn) [Dipivefrin hydrochloride]
growth yield (40 h): 99.28 ± 0.79%
growth yield (72 h): 100.2 ± 0.94%

Cc1c(N(C)CS(=O)(=O)O)c(=O)n(-c2ccccc2)n1C [Dipyrone]
growth yield (40 h): 91.7 ± 4.6%
growth yield (72 h): 85.68 ± 0.73%

O=c1[nH]c(=O)n(C2CCCO2)cc1F (stereo not drawn) [Tegafur]
growth yield (40 h): 106 ± 8.3%
growth yield (72 h): 94.8 ± 7.5%

CC(NCCC(c1ccccc1)c1ccccc1)c1ccccc1 (stereo not drawn) [Fendiline hydrochloride]
growth yield (40 h): 106 ± 2.5%
growth yield (72 h): 115 ± 4.2%

CC(=O)Oc1ccccc1C(=O)Nc1ncc([N+](=O)[O-])s1 [Nitazoxanide]
growth yield (40 h): 89.3 ± 4.1%
growth yield (72 h): 97.7 ± 2.1%

CCN(CC)CCOC(=O)C1(C2CCCCC2)CCCCC1 [Dicyclomine hydrochloride]
growth yield (40 h): 97.5 ± 3.8%
growth yield (72 h): 101 ± 6.2%

CC(N/C(=N\C#N)Nc1ccncc1)C(C)(C)C (stereo not drawn) [Pinacidil]
growth yield (40 h): 100 ± 2.2%
growth yield (72 h): 103 ± 0.21%

CCCCC(O)c1ccccc1 (stereo not drawn) [Fenipentol]
growth yield (40 h): 96.89 ± 0.32%
growth yield (72 h): 101 ± 0.32%

CN(C)CCCN1c2ccccc2Sc2ccc(C(F)(F)F)cc21 [Triflupromazine hydrochloride]
growth yield (40 h): 74.66 ± 0.32%
growth yield (72 h): 92.1 ± 2.1%

COc1cc(C(=O)OCCCN2CCCN(CCCOC(=O)c3cc(OC)c(OC)c(OC)c3)CC2)cc(OC)c1OC [Dilazep dihydrochloride]
growth yield (40 h): 104 ± 4.8%
growth yield (72 h): 99.8 ± 2.9%

O=C1c2c(O)cccc2Cc2cccc(O)c21 [Anthralin]
growth yield (40 h): 96.7 ± 3.6%
growth yield (72 h): 89.5 ± 2.8%

C[C@@H]1C[C@H]2[C@@H]3C[C@H](F)C4=CC(=O)C=C[C@]4(C)[C@@]3(F)[C@@H](O)C[C@]2(C)[C@@]1(O)C(=O)CO [Flumethasone]
growth yield (40 h): 97.2 ± 2.2%
growth yield (72 h): 92.29 ± 0.84%

O=C(O)Cc1ccc(-c2ccccc2)cc1 [Felbinac]
growth yield (40 h): 79.7 ± 19%
growth yield (72 h): 98.4 ± 3.4%

O=C(O)c1cn(-c2ccc(F)cc2)c2cc(N3CCNCC3)c(F)cc2c1=O [Sarafloxacin]
growth yield (40 h): 101 ± 4.1%
growth yield (72 h): 97 ± 2.4%

C[N+]1(C)CCC(OC(=O)C(O)(c2ccccc2)C2CCCC2)C1 (stereo not drawn) [Glycopyrrolate]
growth yield (40 h): 96.26 ± 0.95%
growth yield (72 h): 90.72 ± 0.73%

Clc1ccc(CCC(Cn2ccnc2)Sc2c(Cl)cccc2Cl)cc1 (stereo not drawn) [Butoconazole nitrate]
growth yield (40 h): 3.49%
growth yield (72 h): 2.31%

N#Cc1ccc(C(c2ccc(C#N)cc2)n2cncn2)cc1 [Letrozole]
growth yield (40 h): 103 ± 1.1%
growth yield (72 h): 101.5 ± 0.42%

N=C(NCCCCCCNC(=N)NC(=N)Nc1ccc(Cl)cc1)NC(=N)Nc1ccc(Cl)cc1 [Chlorhexidine]
growth yield (40 h): 2.7 ± 1.4%
growth yield (72 h): 2.31 ± 0.84%

NCc1ccccc1CC(=O)N[C@@H]1C(=O)N2C(C(=O)O)=C(CSc3nnnn3CC(=O)O)CS[C@H]12 [Ceforanide]
growth yield (40 h): 92.4%
growth yield (72 h): 96.1%

CN1CCN(C2=Nc3ccccc3Oc3ccc(Cl)cc32)CC1 [Loxapine succinate]
growth yield (40 h): 97.2 ± 1.6%
growth yield (72 h): 102 ± 2.9%

CC(=O)S[C@@H]1CC2=CC(=O)CC[C@]2(C)[C@H]2CC[C@@]3(C)[C@@H](CC[C@@]34CCC(=O)O4)[C@H]12 [Spironolactone]
growth yield (40 h): 96.26 ± 0.32%
growth yield (72 h): 99.11 ± 0.94%

CCCc1cc(C(N)=S)ccn1 [Prothionamide]
growth yield (40 h): 104 ± 4.6%
growth yield (72 h): 104 ± 3.9%

CC(Cc1cccc(C(F)(F)F)c1)NCCOC(=O)c1ccccc1 (stereo not drawn) [Benfluorex]
growth yield (40 h): 83.5 ± 3.5%
growth yield (72 h): 95.9 ± 1.9%

NNCCc1ccccc1 [Phenelzine sulfate]
growth yield (40 h): 102 ± 3.5%
growth yield (72 h): 95.6%

C[C@H]1O[C@H](O[C@H]2[C@H](O)[C@@H](O)[C@@H](O[C@H]3[C@H](O)[C@@H](O)C(O)O[C@@H]3CO)O[C@@H]2CO)[C@H](O)[C@@H](O)[C@@H]1N[C@H]1C=C(CO)[C@@H](O)[C@H](O)[C@H]1O (stereo partly drawn) [Acarbose]
growth yield (40 h): 104.7 ± 0.79%
growth yield (72 h): 109 ± 2%
